In the GPR68 mutational scans of Howard et al. (2025):
Scores whose standard error is large were omitted. The source holds two more conditions with little spread; they are left out. Names with del lack the residues named; names with ins carry added residues between the positions named. For part of these data: The data file names ogerin without a concentration.

B1: GPR68, Q15743 (parent)
chain: MGNITADNSSMSCTIDHTIHQTLAPVVYVTVLVVGFPANCLSLYFGYLQIKARNELGVYLCNLTVADLFYICSLPFWLQYVLQHDNWSHGDLSCQVCGILLYENIYISVGFLCCISVDRYLAVAHPFRFHQFRTLKAAVGVSVVIWAKELLTSIYFLMHEEVIEDENQHRVCFEHYPIQAWQRAINYYRFLVGFLFPICLLLASYQGILRAVRRSHGTQKSRKDQIQRLVLSTVVIFLACFLPYHVLLLVRSVWEASCDFAKGVFNAYHFSLLLTSFNCVADPVLYCFVSETTHRDLARLRGACLAFLTCSRTGRAREAYPLGAPEASGKSGAQGEEPELLTKLHPAFQTPNSPGSGGFPTGRLA

Columns and labels:
[1] = variants of: B1; assay: cAMP reporter score (Enrich2 score, wild type = 0); higher = more signal; HEK293T, FACS bins
[2] = variants of: B1; assay: surface expression score (Enrich2 score, wild type = 0); higher = more signal; HEK293T, FACS bins

Variant | cAMP reporter score ([1]; pH 5.5) | cAMP reporter score ([1]; pH 6, modulator: ogerin) | cAMP reporter score ([1]; pH 6.5, modulator: ogerin) | surface expression score [2] | cAMP reporter score ([1]; pH 6)
MGNITADNSSMSCTIDHTIHQTLAPVVYVTVLVVGFPANCLSLYFGYLQIKARNELGVYLCNLTVADLFYICSLPFWLQYVLQHDNWSHGDLSCQVCGILLYENIYISVGFLCCISVDRYLAVAHPFRFHQFRTLKAAVGVSVVIWAKELLTSIYFLMHEEVIEDENQHRVCFEHYPIQAWQRAINYYRFLVGFLFPICLLLASYQGILRAVRRSHGTQKSRKDQIQRLVLSTVVIFLACFLPYHVLLLVRSVWEASCDFAKGVFNAYHFSLLLTSFNCVADPVLYCFVSETTHRDLARLRGACLTFLTCSRTGRAREAYPLGAPEASGKSGAQGEEPELLTKLHPAFQTPNSPGSGGFPTGRLA [A306T] | 0.816 | -0.024 | -0.199 | 0.201 | 
MGNITADNSSMSCTIDHTIHQTLAPVVYVTVLVVGFPANCLSLYFGYLQIKARNELGVYLCNLTVADLFYICSLPFWLQYVLQHDNWSHGDLSCQVCGILLYENIYISVGFLCCISVDRYLAVAHPFRFHQFRTLKAAVGVSVVIWAKELLTSIYFLMHEEVIEDENQHRVCFEHYPIQAWQRAINYYRFLVGFLFPICLLLASYQGILRAVRRSHGTQKSRKDQIQRLVLSTVVIFLACFLPYHVLLLVRSVWEASCDFAKGVFNAYHFSLLLTSFNCVADPVLYCFVSETTHRDLARLRGACLWFLTCSRTGRAREAYPLGAPEASGKSGAQGEEPELLTKLHPAFQTPNSPGSGGFPTGRLA [A306W] | -1.22 | -0.379 | 0.253 | -1.08 | -0.29
MGNITADNSSMSCTIDHTIHQTLAPVVYVTVLVVGFPANCLSLYFGYLQIKARNELGVYLCNLTVADLFYICSLPFWLQYVLQHDNWSHGDLSCQVCGILLYENIYISVGFLCCISVDRYLAVAHPFRFHQFRTLKAAVGVSVVIWAKELLTSIYFLMHEEVIEDENQHRVCFEHYPIQAWQRAINYYRFLVGFLFPICLLLASYQGILRAVRRSHGTQKSRKDQIQRLVLSTVVIFLACFLPYHVLLLVRSVWEASCDFAKGVFNAYHFSLLLTSFNCVADPVLYCFVSETTHRDLARLRGACLVFLTCSRTGRAREAYPLGAPEASGKSGAQGEEPELLTKLHPAFQTPNSPGSGGFPTGRLA [A306V] | 0.072 | 0.459 | -0.676 | -1.13 | -1.76
MGNITADNSSMSCTIDHTIHQTLAPVVYVTVLVVGFPANCLSLYFGYLQIKARNELGVYLCNLTVADLFYICSLPFWLQYVLQHDNWSHGDLSCQVCGILLYENIYISVGFLCCISVDRYLAVAHPFRFHQFRTLKAAVGVSVVIWAKELLTSIYFLMHEEVIEDENQHRVCFEHYPIQAWQRAINYYRFLVGFLFPICLLLASYQGILRAVRRSHGTQKSRKDQIQRLVLSTVVIFLACFLPYHVLLLVRSVWEASCDFAKGVFNAYHFSLLLTSFNCVADPVLYCFVSETTHRDLARLRGACLYFLTCSRTGRAREAYPLGAPEASGKSGAQGEEPELLTKLHPAFQTPNSPGSGGFPTGRLA [A306Y] | 1.25 | 0.873 | -1.08 |  | 0.264
